This is an account of results in article PMC9911399, “Two distinct binding modes provide the RNA-binding protein RbFox with extraordinary sequence specificity”.

Changes are numbered by the printed parent chain; changes in the protein carry UniProt numbers. Some of the results follow.

T1: RBFOX1 RRM RbFoxmut (Fox-RRM*) (Homo sapiens, UniProt Q9NWB1 109-208, R118D;E147R;N151S;E152T)
T1 sequence: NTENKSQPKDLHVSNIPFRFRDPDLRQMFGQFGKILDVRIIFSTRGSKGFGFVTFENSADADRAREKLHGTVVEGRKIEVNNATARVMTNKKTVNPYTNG

B1: AUCCUAU (DNA:RNA)
RNA: GGGAGACCGGAAUUCAGAUUGUCCAUCCUAUUUAAAUCCCGUCGUAGCCACCA
DNA 1: CAATCTGAATTCCGGTCTCCC
DNA 2: TGGTGGCTACGACGGGATT
B2: GCAAUGC (DNA:RNA)
RNA: B1 RNA with A25G, U26C, C27A, C28A, A30G, U31C
DNA 1: CAATCTGAATTCCGGTCTCCC
DNA 2: TGGTGGCTACGACGGGATT
B3: UAACAUC (DNA:RNA)
RNA: B1 RNA with A25U, U26A, C27A, U29A, A30U, U31C
DNA 1: CAATCTGAATTCCGGTCTCCC
DNA 2: TGGTGGCTACGACGGGATT
B4: ACAGGCU (DNA:RNA)
RNA: B1 RNA with U26C, C27A, C28G, U29G, A30C
DNA 1: CAATCTGAATTCCGGTCTCCC
DNA 2: TGGTGGCTACGACGGGATT
B5: CGGACAC (DNA:RNA)
RNA: B1 RNA with A25C, U26G, C27G, C28A, U29C, U31C
DNA 1: CAATCTGAATTCCGGTCTCCC
DNA 2: TGGTGGCTACGACGGGATT
B6: GCUUUAU (DNA:RNA)
RNA: B1 RNA with A25G, U26C, C27U, C28U
DNA 1: CAATCTGAATTCCGGTCTCCC
DNA 2: TGGTGGCTACGACGGGATT
B7: GGUGUCA (DNA:RNA)
RNA: B1 RNA with A25G, U26G, C27U, C28G, A30C, U31A
DNA 1: CAATCTGAATTCCGGTCTCCC
DNA 2: TGGTGGCTACGACGGGATT
B8: GGACUUC (DNA:RNA)
RNA: B1 RNA with A25G, U26G, C27A, A30U, U31C
DNA 1: CAATCTGAATTCCGGTCTCCC
DNA 2: TGGTGGCTACGACGGGATT
B9: UAGACUA (DNA:RNA)
RNA: GGGAGACCGGAAUUCAGAUUGUCCUAGACUAUUAAAUCCCGUCGUAGCCACCA
DNA 1: CAATCTGAATTCCGGTCTCCC
DNA 2: TGGTGGCTACGACGGGATT
B10: CUCUACC (DNA:RNA)
RNA: B1 RNA with A25C, C28U, U29A, A30C, U31C
DNA 1: CAATCTGAATTCCGGTCTCCC
DNA 2: TGGTGGCTACGACGGGATT
B11: UAGGCCC (DNA:RNA)
RNA: B9 RNA with A28G, U30C, A31C
DNA 1: CAATCTGAATTCCGGTCTCCC
DNA 2: TGGTGGCTACGACGGGATT
B12: CGAAGCA (DNA:RNA)
RNA: B9 RNA with U25C, A26G, G27A, C29G, U30C
DNA 1: CAATCTGAATTCCGGTCTCCC
DNA 2: TGGTGGCTACGACGGGATT
B13: UUACUAG (DNA:RNA)
RNA: B1 RNA with A25U, C27A, U31G
DNA 1: CAATCTGAATTCCGGTCTCCC
DNA 2: TGGTGGCTACGACGGGATT
B14: CUUGAUG (DNA:RNA)
RNA: B1 RNA with A25C, C27U, C28G, U29A, A30U, U31G
DNA 1: CAATCTGAATTCCGGTCTCCC
DNA 2: TGGTGGCTACGACGGGATT
B15: AUUUGGC (DNA:RNA)
RNA: B1 RNA with C27U, C28U, U29G, A30G, U31C
DNA 1: CAATCTGAATTCCGGTCTCCC
DNA 2: TGGTGGCTACGACGGGATT
B16: UAAAUGA (DNA:RNA)
RNA: B9 RNA with G27A, C29U, U30G
DNA 1: CAATCTGAATTCCGGTCTCCC
DNA 2: TGGTGGCTACGACGGGATT
B17: AACCAUC (DNA:RNA)
RNA: B1 RNA with U26A, U29A, A30U, U31C
DNA 1: CAATCTGAATTCCGGTCTCCC
DNA 2: TGGTGGCTACGACGGGATT
B18: UGAACAC (DNA:RNA)
RNA: B9 RNA with A26G, G27A, U30A, A31C
DNA 1: CAATCTGAATTCCGGTCTCCC
DNA 2: TGGTGGCTACGACGGGATT
B19: ACCCAAU (DNA:RNA)
RNA: B1 RNA with U26C, U29A
DNA 1: CAATCTGAATTCCGGTCTCCC
DNA 2: TGGTGGCTACGACGGGATT
B20: CAGGCGC (DNA:RNA)
RNA: B9 RNA with U25C, A28G, U30G, A31C
DNA 1: CAATCTGAATTCCGGTCTCCC
DNA 2: TGGTGGCTACGACGGGATT
B21: AUCCAUA (DNA:RNA)
RNA: B1 RNA with U29A, A30U, U31A
DNA 1: CAATCTGAATTCCGGTCTCCC
DNA 2: TGGTGGCTACGACGGGATT
B22: AACAUAC (DNA:RNA)
RNA: B1 RNA with U26A, C28A, U31C
DNA 1: CAATCTGAATTCCGGTCTCCC
DNA 2: TGGTGGCTACGACGGGATT
B23: CAUUUGA (DNA:RNA)
RNA: B9 RNA with U25C, G27U, A28U, C29U, U30G
DNA 1: CAATCTGAATTCCGGTCTCCC
DNA 2: TGGTGGCTACGACGGGATT
B24: CGCCCUG (DNA:RNA)
RNA: B1 RNA with A25C, U26G, U29C, A30U, U31G
DNA 1: CAATCTGAATTCCGGTCTCCC
DNA 2: TGGTGGCTACGACGGGATT
B25: GUCAGCG (DNA:RNA)
RNA: B1 RNA with A25G, C28A, U29G, A30C, U31G
DNA 1: CAATCTGAATTCCGGTCTCCC
DNA 2: TGGTGGCTACGACGGGATT
B26: UUCUCAA (DNA:RNA)
RNA: B1 RNA with A25U, C28U, U29C, U31A
DNA 1: CAATCTGAATTCCGGTCTCCC
DNA 2: TGGTGGCTACGACGGGATT
B27: CGUGUUC (DNA:RNA)
RNA: B1 RNA with A25C, U26G, C27U, C28G, A30U, U31C
DNA 1: CAATCTGAATTCCGGTCTCCC
DNA 2: TGGTGGCTACGACGGGATT
B28: AGAAUCG (DNA:RNA)
RNA: B1 RNA with U26G, C27A, C28A, A30C, U31G
DNA 1: CAATCTGAATTCCGGTCTCCC
DNA 2: TGGTGGCTACGACGGGATT
B29: GAACCGG (DNA:RNA)
RNA: B9 RNA with U25G, G27A, A28C, U30G, A31G
DNA 1: CAATCTGAATTCCGGTCTCCC
DNA 2: TGGTGGCTACGACGGGATT
B30: GUCGCGU (DNA:RNA)
RNA: B1 RNA with A25G, C28G, U29C, A30G
DNA 1: CAATCTGAATTCCGGTCTCCC
DNA 2: TGGTGGCTACGACGGGATT
B31: GGUCCAU (DNA:RNA)
RNA: B1 RNA with A25G, U26G, C27U, U29C
DNA 1: CAATCTGAATTCCGGTCTCCC
DNA 2: TGGTGGCTACGACGGGATT

The assay deals with T1, RBFOX1 RRM RbFoxmut (Fox-RRM*). The assay can be described thus: EMSA; HiTS-Eq, 1 nM pool, 10 min; buffer printed only for the single-RNA assays: 10 mM Tris pH 7.5, 150 mM NaCl, 3.4 mM EDTA, 0.001% NP-40, 30 C. The note with it: tags: His6 N-terminal (pET28a); label: 5' 32P. In short, it runs like this:
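Purified RbFox RRM, wild type or mutant, was incubated for 10 min in 50 µL with 1 nM of a 5′-radiolabelled RNA pool carrying 7 randomized nucleotides, whose flanks were annealed to DNA oligonucleotides, over a series of increasing protein concentrations. Unbound RNA was resolved on 8% native PAGE, cut out, reverse-transcribed, barcoded by PCR and sequenced on an Illumina HiSeq 2500. Relative association constants were derived from changes in read counts for each RNA species versus the control reaction and normalised to the cognate motif.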
A general note: In EMSA bound probe runs differently from free probe, usually more slowly.
Consider B1, for which the binding signal was 0.135 KA relative to UGCAUGU.
Turning to B2, the binding signal is 0.0545 KA relative to UGCAUGU.
For the molecule B3, the binding signal was 0.0561 KA relative to UGCAUGU.
In the case of B4, the binding signal is 0.118 KA relative to UGCAUGU.
On to B5, for which the binding signal is 0.0572 KA relative to UGCAUGU.
To B6 belongs 0.126 KA relative to UGCAUGU; to B7, 0.169 KA relative to UGCAUGU; to B8, 0.118 KA relative to UGCAUGU.
In the case of B9, the binding signal was 0.0687 KA relative to UGCAUGU.
In the case of B10, the binding signal was 0.0729 KA relative to UGCAUGU.
Regarding B11, the binding signal is 0.0552 KA relative to UGCAUGU.
With B12, the binding signal was 0.142 KA relative to UGCAUGU.
For the molecule B13, the binding signal was 0.1 KA relative to UGCAUGU.
For B14, the binding signal is 0.144 KA relative to UGCAUGU.
Consider B15, for which the binding signal was 0.115 KA relative to UGCAUGU.
Consider B16, for which the binding signal was 0.0756 KA relative to UGCAUGU.
In the case of B17 it was 0.041 KA relative to UGCAUGU; in that of B18, 0.1 KA relative to UGCAUGU; in that of B19, 0.0571 KA relative to UGCAUGU.
To B20 belongs 0.0775 KA relative to UGCAUGU.
On to B21, for which the binding signal was 0.117 KA relative to UGCAUGU.
With B22, the binding signal was 0.0881 KA relative to UGCAUGU.
Consider B23, for which the binding signal is 0.0927 KA relative to UGCAUGU.
Turning to B24, the binding signal is 0.0947 KA relative to UGCAUGU.
As to B25, the binding signal is 0.138 KA relative to UGCAUGU.
Regarding B26, the binding signal was 0.0802 KA relative to UGCAUGU.
With B27, the binding signal is 0.107 KA relative to UGCAUGU.
As to B28, the binding signal is 0.28 KA relative to UGCAUGU.
Take B29: the binding signal was 0.0476 KA relative to UGCAUGU.
To B30 belongs 0.142 KA relative to UGCAUGU; to B31, 0.0753 KA relative to UGCAUGU.
